Measurements: PubChem BioAssay AID360 (National Center for Advancing Translational Sciences (NCATS), 2006)
Among all 48,000 compounds or so, about 550 (1.1%) were called active. Inconclusive results (about 4%) are left out. No stated cut-off is given here; in the data, active means potency below about 15 µM; inconclusive means mostly about 16 µM to 33 µM; inactive means weaker than that. The list shows a part of the results.

Biological target: Lysosomal acid glucosylceramidase (Homo sapiens) (UniProt P04062)
Test: Glucocerebrosidase;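 further: the screen sought inhibitors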
Conditions: purified enzyme, resorufin glucoside fluorescence (screen aimed at inhibitors), 20 min; series mostly up to 77 µM
In short: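 Wild-type enzyme at 0.2 nM final in 50mM citric acid/KH2PO4, 10mM sodium taurocholate, 0.01% tween-20, pH 5.9, with resorufin beta-D-glucopyranoside at 30 uM final. Compounds titrated, 20 min at RT, red fluorescence read; AC50 from titration.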
Potency means the concentration at half of the fitted maximal effect.

Sequence of UniProt P04062 (P04062 whole entry, looked up): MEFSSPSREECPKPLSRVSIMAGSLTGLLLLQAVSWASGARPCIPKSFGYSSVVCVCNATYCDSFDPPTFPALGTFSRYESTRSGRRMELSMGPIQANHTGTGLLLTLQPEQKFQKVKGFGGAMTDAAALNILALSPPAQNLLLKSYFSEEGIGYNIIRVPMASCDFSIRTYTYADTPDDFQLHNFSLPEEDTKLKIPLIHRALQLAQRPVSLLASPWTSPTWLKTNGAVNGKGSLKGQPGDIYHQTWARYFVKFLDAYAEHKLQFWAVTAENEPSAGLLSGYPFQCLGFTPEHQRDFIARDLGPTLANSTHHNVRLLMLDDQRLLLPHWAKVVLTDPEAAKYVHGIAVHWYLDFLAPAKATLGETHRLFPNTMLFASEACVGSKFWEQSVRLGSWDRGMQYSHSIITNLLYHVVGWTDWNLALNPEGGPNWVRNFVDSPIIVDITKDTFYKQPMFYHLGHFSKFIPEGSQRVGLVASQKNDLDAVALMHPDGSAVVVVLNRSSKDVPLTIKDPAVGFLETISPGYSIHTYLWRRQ

Potency, inactive:
CCOC(=O)C1CCN(C(=O)CSC2=NCCS2)CC1 > 76.9 µM
CC(O)CNC(=O)C1CCN(Cc2ccc(OCc3ccccc3)cc2)CC1 (stereo not given) > 76.9 µM
Cc1cc(=O)oc2cc(OCC(=O)N3CCCc4ccccc43)ccc12 > 76.9 µM
O=C(CSc1ccc(Cl)cc1)c1ccco1 > 76.9 µM
COc1ccc(CCNC(=O)CN2CCC(C(N)=O)CC2)cc1 > 76.9 µM
COc1cc(S(=O)(=O)N2CCN=C2c2ccccc2)ccc1F > 76.9 µM
Cc1cc(C(=O)Nc2ccon2)cs1 > 76.9 µM
CC(C)OC(=O)CC(=O)CSc1nc2c(cc1C#N)CCCC2
CS(=O)(=O)N1CCCC(C(=O)NCCN2CCC(Cc3ccccc3)CC2)C1 (stereo not given) > 76.9 µM
Cn1c(NCc2ccco2)nc2c1c(=O)n(Cc1ccc(Br)cc1)c(=O)n2C > 76.9 µM
COc1ccccc1-c1nc(NC(C)=O)n[nH]1 > 76.9 µM
COc1cc(NC2c3ncccc3C(=O)N2Cc2ccco2)cc(OC)c1 (stereo not given) > 76.9 µM
COc1ccc(Cl)cc1N(CC(=O)Nc1ccccc1C(=O)NCc1ccco1)S(C)(=O)=O > 76.9 µM
CC1=CCC2C(=O)N(c3ccc4ccccc4n3)C(=O)C2C1 (stereo not given) > 76.9 µM
Nc1ccc(-n2nnnc2-c2ccco2)cc1 > 76.9 µM
CCOc1ccc(NC(=O)CC2CC(C)(C)OC2=O)cc1 (stereo not given) > 76.9 µM
O=C(c1cn(-c2ccccc2)nc1-c1ccncc1)N1CCCCC1 > 76.9 µM
Cn1c(SCC(=O)Nc2ccc3c(c2)oc2ccccc23)nnc1-c1ccccc1 > 76.9 µM
CCN1C(=O)CC(C(=O)Nc2ccc(F)cc2)SC1=Nc1ccc2c(c1)OCO2 (stereo not given)
Cc1ccc(-c2nnn(CC(=O)N(c3cccc(O)c3)C(C(=O)NC(C)(C)C)c3cccs3)n2)o1 (stereo not given) > 76.9 µM
CN(C)c1nc2n(c(=O)n1)CCO2 > 76.9 µM
CCN(CC)CCCNC(=O)C1c2ccccc2C(=O)N(C)C1c1ccc(OC)cc1 (stereo not given) > 76.9 µM
CCc1nc(SCC(=O)Nc2cc(C)on2)c2c(C)c(C)sc2n1 > 76.9 µM
CCOc1ccc2[nH]c(=O)c(CN(CCN3CCOCC3)Cc3nnnn3C(C)(C)CC)cc2c1 > 76.9 µM
CC(C)n1c(SCc2ccc(Cl)cc2)nc2c1c(=O)[nH]c(=O)n2C > 76.9 µM
